Source: the DeepSol protein solubility set

Assay: soluble on expression in E. coli; label from the status in PepcDB or PDB records

Row | Sequence | soluble on expression in E. coli
1 | MPGDSLTSSSFMPDGGAETSSSSQLGGSAHGAIGTKPDAGVQFQCPVRPNHGVEGRSILLRANHFAVRIPGGSVQHYQIDVFPDKCPRRVNREVIGCLISSFSKYFTNIRPVYDGKRNMYTREPLPIGTEPMNFEVTLPGDSAVERKFSVTMKWIGQVCLSALDDAMEGRVRQVPHEAVQSIDVILRHLPSLKYTPVGRSFFTPPGVMKPGMQMHQESKLGGGREVWFGFHQSVRPSQWKMMLNIDVSATAFYRAMPVIEFVAEVLELPVQALAERRALSDAQRVKFTKEIRGLKIEITHCGAVRRKYRVCNVTRRPAQTQTFPLQLETGQTIECTVAKYFFDKYRIQLKYPHLPCLQVGQEQKHTYLPPEVCDIVPGQRCLKKLTDVQTSTMIKATARSAPEREREICKLVSKAELSADPFAHEFGITINPAMTEVKGRVLSAPKLLYGGRHRATTALPNQGVWDMRGKQFHTGMEVRTWAIACFAQQSHVKENDLRMFTTQLQRISTDAGMPIIGTPMFCKYASGVEQVEPMFKYLKQTYSAIQLIVVVLPGKTPIYAEVKRVGDTVLGIATQCVQAKNAIRTTPQTLSNLCLKMNVKLGGVNSILLPNVRPRIFNEPVIFLGCDITHPAAGDTRKPSIAAVVGSMDAHPSRYAATVRVQQHRQEIITDLTYMVRELLVQFYRNTRFKPARIVVYRDGVSEGQLFNVLQYELRAIREACVMLESGYQPGITFIAVQKRHHTRLFAADKADQVGKAFNIPPGTTVDVGITHPTEFDFFLCSHAGIQGTSRPSHYHVLWDDNDLTADELQQLTYQMCHTYVRCTRSVSIPAPAYYAHLVAFRARYHLVDRDHGSGEEGSQPSGTSSEDTTLSSMAKAVQVHPDSNNVMYFA | not soluble
2 | AHHHHHHGSAKRFGYSFQNFDPKRMARASARDLRISPKLAVEVCRELRGMMLNDALRYLDDVIALKRPVPLKRYNDSQGHKPGKGFGPGRYPVKVAKAIKKVLLNVKNNAVQKGLDPDKLKIIHIAAHKGPVLRGWYPRAFGRATPFNEQTTHIEVVVEEIRR | not soluble
3 | MAAGGTGGLREEQRYGLSCGRLGQDNITVLHVKLTETAIRALETYQSHKNLIPFRPSIQFQGLHGLVKIPKNDPLNEVHNFNFYLSNVGKDNPQGSFDCIQQTFSSSGASQLNCLGFIQDKITVCATNDSYQMTRERMTQAEEESRNRSTKVIKPGGPYVGKRVQIRKAPQAVSDTVPERKRSTPMNPANTIRKTHSSSTISQRPYRDRVIHLLALKAYKKPELLARLQKDGVNQKDKNSLGAILQQVANLNSKDLSYTLKDYVFKELQRDWPGYSEIDRRSLESVLSRKLNPSQNATGTSRSESPVCSSRDAVSSPQKRLLDSEFIDPLMNKKARISHLTNRVPPTLNGHLNPTSEKSAAGLPLPPAAAAIPTPPPLPSTYLPISHPPQIVNSNSNSPSTPEGRGTQDLPVDSFSQNDSIYEDQQDKYTSRTSLETLPPGSVLLKCPKPMEENHSMSHKKSKKKSKKHKEKDQIKKHDIETIEEKEEDLKREEEIAKLNNSSPNSSGGVKEDCTASMEPSAIELPDYLIKYIAIVSYEQRQNYKDDFNAEYDEYRALHARMETVARRFIKLDAQRKRLSPGSKEYQNVHEEVLQEYQKIKQSSPNYHEEKYRCEYLHNKLAHIKRLIGEFDQQQAESWS | not soluble
4 | MAIWQGRSLKKPSGGRIVLARKKRKRELGREPSNTRVAEQDKRKIIRTYGGNRKVRLTAAAYANVFDKSGKGRKVRIIRVIENPANRQFARRNIITKGAIIETEIGKAKVTSRPGQDGVVNAILLEEMAGDPLEHHHHHH | soluble
5 | MATRTQFENSNEIGVFSKLTNTYCLVAVGGSENFYSAFEAELGDAIPIVHTTIAGTRIIGRMTAGNRRGLLVPTQTTDQELQHLRNSLPDSVKIQRVEERLSALGNVICCNDYVALVHPDIDRETEELISDVLGVEVFRQTISGNILVGSYCSLSNQGGLVHPQTSVQDQEELSSLLQVPLVAGTVNRGSSVVGAGMVVNDYLAVTGLDTTAPELSVIESIFRLQDAQPESISGNLRDTLIETYS | soluble
6 | MNKRRAKGKSHSIRPARAGAPKWVRLTREEVEMLVEELAKRGYTPSMIGIILRDQYGIPLVKQIVGKKVTQILEERGLAPQIPEDLFNLIRKAVNVRRHINEYPRDKTAKKGLEEIESKIRRLTRYYKGIGKLPQEWVYDPAKAELLVAGAS | not soluble
7 | MGSDKIHHHHHHVIDADKLIFSSSSAEIITQDAVVTFLLQLYFNLTKSSANNMITIKKGLDLPIAGKPEQVIHNGNAVKEVALLGEEYVGMRPSMKVREGDVVKKGQVLFEDKKNPGIVFTAPASGTVTAINRGAKRVLQSVVIKVEGNEQITFTQYNEDELKKLTSDQVRQNLQSSGLWTALRTRPFSKVPASDAVPSSIFVNAMDTNPLSANPEIVLKEHWQDFTDGLTVLSRLHEGKLHLCKAGDSNIPTIDLPNLAVHDFSGPHPAGLSGTHIHFIDPVSVTKSVWYLNYQDVIAIGKLFTTGEIYTDRVVSLAGPQVKNPRLIRTQLGANLSHLTENELSAGENRVISGSVLSGNTAIGPYNYLGRYALQVSVIAEGREKEFLGWIMPGKNKFSITRTVLGHFSSKLFNFTSAVNGGHRAMVPIGAYERVVPLDIIPTLLLRDLASGDTDSAQALGCLELDEEDLALCTFVCPGKNEYGPMLRAALDKIEKEG | not soluble
8 | AHHHHHHGSGDPKRQRKKYETPPHPWIKERLDRERVLMDKYELKNKKELWKHETQLKNFRRRARRLLAARGKQAEIEREQLLARLKRLGLLPEDAVLDDVLSLTIEDILERRLQTIVYKKGLARTMRQARQLIVHGHIEVNGQIIRSPSYLVLKEEEDTITYARTSPFANPQHPERMMIEKAKQGGEA | not soluble
9 | MPYKLKKEKEPPKVAKCTAKPSSSGKDGGGENTEEAQPQPQPQPQPQAQSQPPSSNKRPSNSTPPPTQLSKIKYSGGPQIVKKELFIQKLRQCCVLFDFVSDPLSDLKFKEVKRAGLNEMVEYITHSRDVVTEAIYPEAVTMFSVNLFRTLPPSSNPTGAEFDPEEDEPTLEAAWPHLQLVYEFFLRFLESPDFQPNIAKKYIDQKFVLALLDLFDSEDPRERDFLKTILHRIYGKFLGLRAYIRRQINHIFYRFIYETEHHNGIAELLEILGSIINGFALPLKEEHKMFLIRVLLPLHKVKSLSVYHPQLAYCVVQFLEKESSLTEPVIVGLLKFWPKTHSPKEVMFLNELEEILDVIEPSEFSKVMEPLFRQLAKCVSSPHFQVAERALYYWNNEYIMSLISDNAARVLPIMFPALYRNSKSHWNKTIHGLIYNALKLFMEMNQKLFDDCTQQYKAEKQKGRFRMKEREEMWQKIEELARLNPQYPMFRAPPPLPPVYSMETETPTAEDIQLLKRTVETEAVQMLKDIKKEKVLLRRKSELPQDVYTIKALEAHKRAEEFLTASQEAL | not soluble
10 | FPVSSKEKNTKTVQDYLEKFYQLPSNQYQSTRKNGTNVIVEKLKEMQRFFGLNVTGKPNEETLDMMKKPRCGVPDSGGFMLTPGNPKWERTNLTYRIRNYTPQLSEAEVERAIKDAFELWSVASPLIFTRISQGEADINIAFYQRDHGDNSPFDGPNGILAHAFQPGQGIGGDAHFDAEETWTNTSANYNLFLVAAHEFGHSLGLAHSSDPGALMYPNYAFRETSNYSLPQDDIDGIQAIYGLSSNPIQPTGPSTPKPCDPSLTFDAITTLRGEILFFKDRYFWRRHPQLQRVEMNFISLFWPSLPTGIQAAYEDFDRDLIFLFKGNQYWALSGYDILQGYPKDISNYGFPSSVQAIDAAVFYRSKTYFFVNDQFWRYDNQRQFMEPGYPKSISGAFPGIESKVDAVFQQEHFFHVFSGPRYYAFDLIAQRVTRVARGNKWLNCRYG | soluble
11 | RTGRFGPRYGLKIRVRVADVEIKHKKKHKCPVCGFKKLKRAGTGIWMCGHCGYKIAGGCYQPETVAGKAVMKA | soluble
